What all share (test): cell count relative to DMSO control; melanoma cells; higher = more viable cells
Holding throughout (settings): library dose: standard library concentration; 72 h

The subject of test [1] is 501Mel.
Test [2] has as its system A101D.
Test [3] has as its system A2058.
Test [4] has as its system A375.

The other results are listed elsewhere or left out. Single values are uncertain, as repeats are few or missing.
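Also: cells treated in 1,536-well plates, then fixed and DAPI-stained, with nuclei counted from automated high-throughput microscope images.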

In the case of `CN(C)S(=O)(=O)c1ccc2c(c1)/C(=C/c1cc3c([nH]1)CCCC3)C(=O)N2` + O=C(O)C(=O)Nc1sc2c(c1C(=O)O)CCNC2 [TCS401] (first compound 2 µM, partner dose 8.33333 µM), the cell count in test [1] worked out at 69.3%; in test [2], 73.2%; in test [3], 105%; in test [4], 118%.
Consider `OCCn1cc(-c2cnc3nnn(Cc4ccc5ncccc5c4)c3n2)cn1` + COc1ccc(-c2ccc3c(N4CCOCC4)nc(N4C[C@@H](C)O[C@@H](C)C4)nc3n2)cc1CO [KU0063794] (first compound 5 µM, partner dose 0.1 µM), for which the cell count in test [1] came to 85%; in test [2], 98%; in test [3], 94.4%; in test [4], 104%.
For the molecule `NC(=O)Nc1cc(-c2cccc(F)c2)sc1C(=O)N[C@H]1CCCNC1` + CCN(CC)CCCCNc1ncc2cc(-c3cc(OC)cc(OC)c3)c(NC(=O)NC(C)(C)C)nc2n1 [PD173074] (first compound 0.1 µM, partner dose 0.5 µM), the cell count in test [1] was found to be 73.1%; in test [2] it was 74.9%; in test [3], 71.9%; in test [4], 44.4%.
As for `OCCn1cc(-c2cnc3nnn(Cc4ccc5ncccc5c4)c3n2)cn1` + Cc1cc([N+](=O)[O-])ccc1NS(=O)(=O)c1cc(Cl)ccc1Cl [FH535] (first compound 5 µM, partner dose 5 µM), the cell count in test [1] was 97.4%; in test [2], 74.5%; in test [3] it was 89.1%; in test [4], 94%.
On to `CN(C)S(=O)(=O)c1ccc2c(c1)/C(=C/c1cc3c([nH]1)CCCC3)C(=O)N2` + Cc1cc([N+](=O)[O-])ccc1NS(=O)(=O)c1cc(Cl)ccc1Cl [FH535] (first compound 2 µM, partner dose 5 µM), for which the cell count in test [1] worked out at 63.6%; in test [2] it was 79.6%; in test [3], 88.9%; in test [4], 125%.
As to `C=CCn1c(=O)c2cnc(Nc3ccc(N4CCN(C)CC4)cc3)nc2n1-c1cccc(C(C)(C)O)n1` + COc1cc2ncnc(Nc3ccc(Oc4ccccc4)cc3)c2cc1OC [SrcI1] (first compound 0.1 µM, partner dose 10 µM), the cell count in test [1] was 51.6%; in test [2], 54.6%; in test [3], 72.7%; in test [4] it was 56.4%.
In the same order, the values of `NCC(=O)Nc1ccc(-n2nc(C(F)(F)F)cc2-c2ccc3c(ccc4ccccc43)c2)cc1` + COc1ccc(COc2ccc(Cc3cnc(N)nc3N)cc2OC)cc1 [GW2580] (first compound 5 µM, partner dose 5 µM) are 3.62%, 10.2%, 77.5% and 54.3%.
In the same order, the values of `NCC(=O)Nc1ccc(-n2nc(C(F)(F)F)cc2-c2ccc3c(ccc4ccccc43)c2)cc1` + COc1cc2ncnc(Nc3ccc(Oc4ccccc4)cc3)c2cc1OC [SrcI1] (first compound 5 µM, partner dose 10 µM) are 2.86%, 15.2%, 57.7% and 54.7%.
As to `OCCn1cc(-c2cnc3nnn(Cc4ccc5ncccc5c4)c3n2)cn1` + c1cc(-c2cnn3cc(-c4ccc(OCCN5CCCCC5)cc4)cnc23)ccn1 [Dorsomorphin] (first compound 5 µM, partner dose 2 µM), the cell count was 75.2% in test [1], 83.5% in test [2], 89% in test [3] and 95.8% in test [4].
The matching figures for `C=CCn1c(=O)c2cnc(Nc3ccc(N4CCN(C)CC4)cc3)nc2n1-c1cccc(C(C)(C)O)n1` + O=c1cc(-c2cccc3c2Sc2ccccc2S3)oc(N2CCOCC2)c1 [KU55933] (first compound 0.1 µM, partner dose 5 µM): 79.4%, 53.7%, 78.7% and 61.1%.
`NCC(=O)Nc1ccc(-n2nc(C(F)(F)F)cc2-c2ccc3c(ccc4ccccc43)c2)cc1` + COc1ccc(-c2ccc3c(N4CCOCC4)nc(N4C[C@@H](C)O[C@@H](C)C4)nc3n2)cc1CO [KU0063794] (first compound 5 µM, partner dose 0.1 µM): the cell count in test [1] amounted to 7.94%; in test [2], 55.8%; in test [3], 97.6%; in test [4] it was 57.7%.
Regarding `C[C@]1(c2nc3c(C(N)=O)cccc3[nH]2)CCCN1` [Veliparib] + CCc1ccc(CCOc2ccc(CC3SC(=O)NC3=O)cc2)nc1 [pioglitazone] (first compound 7 µM, partner dose 10 µM), the cell count in test [1] was 76.1%; in test [2], 77.2%; in test [3] it was 93.2%; in test [4], 97%.
Regarding `Cc1nc(Nc2ncc(C(=O)Nc3c(C)cccc3Cl)s2)cc(N2CCN(CCO)CC2)n1` [dasatanib] + CCc1ccc(CCOc2ccc(CC3SC(=O)NC3=O)cc2)nc1 [pioglitazone] (first compound 0.02 µM, partner dose 10 µM), the cell count stood at 116% in test [1], 61% in test [2], 74.9% in test [3] and 66% in test [4].
With `CO[C@@H]1[C@H](N(C)C(=O)c2ccccc2)C[C@H]2O[C@]1(C)n1c3ccccc3c3c4c(c5c6ccccc6n2c5c31)C(=O)NC4` [Midostaurin] + COC(=O)c1sccc1S(=O)(=O)Nc1ccc(Nc2ccccc2)cc1OC [GSK0660] (first compound 0.4 µM, partner dose 5 µM), the cell count in test [1] was 78.4%; in test [2], 63.8%; in test [3], 42.1%; in test [4], 63.6%.
